# Measurements from PubChem BioAssay AID504832 (National Center for Advancing Translational Sciences (NCATS), 2011).
# The whole screen tested about 310,000 compounds, of which about 18,000 (5.8%) were called active. The inconclusive results got no clear call from the source; some entries with a clear call stand among them for comparison. Calls follow the shape of the dose curve; as a rule, active = well fitted inhibition curve with a large enough effect; inconclusive = small, poorly fitted or top-dose-only effect, or another doubt; inactive = no such curve, though single readings can be large or run the other way. No potency is given beside an inconclusive call; the fits are too rough.
# Test: Primary qHTS for delayed death inhibitors of the malarial parasite plastid, 48 hour incubation
# Conditions: P. falciparum luciferase growth in erythrocytes; series mostly up to 28.7 µM; activity change, negative = inhibition: at the top concentration
# Outline: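 A one-generation exposure of luciferase-tagged malaria parasites in RPMI 1640/Albumax erythrocyte culture, 37 C and 5% CO2. Inhibition is inferred from decreased luminescence after adding detection reagent.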
# % is scaled to controls: 0 for no effect and ±100 for the full control effect; potency is read from the fitted curve at half-maximal effect; tags tell the direction and shape of the fitted curve.
SMILES,Potency,"activity change, negative = inhibition"
CSc1nnc(OC(=O)N(C)C)n1-c1ccc(Cl)cc1,"inconclusive [inhibitor, partial curve]",
COc1ccc(NC(=S)N(CCc2c(C)[nH]c3ccccc23)Cc2cccnc2)cc1,"inconclusive [inhibitor, single point]",
O=C(N/N=C/c1ccco1)c1cc(Br)ccc1OCc1ccccc1,"inconclusive [inhibitor, single point]",
CCc1nc(SCC(=O)NCc2ccco2)c2c3c(sc2n1)CCCC3,"inconclusive [inhibitor, single point]",
CC(=O)Nc1ccc(OS(=O)(=O)c2cc(Cl)ccc2C)cc1,"inconclusive [inhibitor, partial curve, poor fit]",
COc1cccc(C(=O)C2CCCN(Cc3ccccn3)C2)c1 (centres undefined),"inconclusive [inhibitor, partial curve]",
CCc1nc2ccc(C(=O)N3CCN(c4ccc(Cl)cc4)CC3)cc2nc1CC,,inactive: -9.84%
Cc1cc(C)c2c(c1)/C(=N/Nc1ccc(S(N)(=O)=O)cc1[N+](=O)[O-])CCC2,,inactive: 3.95%
CCc1cccc(CC)c1NC(=O)COc1ccccc1C(=O)c1cc(C#N)c(=O)n(C2CCCCC2)c1,active: 5.86 µM,
Cc1ccccc1N=C1SC(CC(=O)Nc2ccc3ccccc3c2)C(=O)N1Cc1ccccn1 (centres undefined),active: 1.17 µM,
COc1ccc(CNC(=O)Cn2c(=O)oc3cc(S(=O)(=O)N4CCCC4)ccc32)cc1,"inconclusive [inhibitor, partial curve]",
CC1c2cccn2CCN1S(=O)(=O)c1ccc(F)cc1 (centres undefined),"inconclusive [inhibitor, partial curve, poor fit]",
Cc1cccc(-n2c(CNC(=O)c3cccc([N+](=O)[O-])c3C)n[nH]c2=S)c1,"inconclusive [inhibitor, partial curve, poor fit]",
COc1ccc(CCC(=O)Nc2sccc2C#N)cc1,,inactive: 233%
COC(=O)C1=COC(C)C2CN3CCc4c([nH]c5cc(OC)c(OC)cc45)C3CC12 (centres undefined),"inconclusive [inhibitor, partial curve, poor fit]",
COc1ccc(N(Cc2cc3cccc(C)c3[nH]c2=O)S(=O)(=O)c2ccc(OC)cc2)cc1,"inconclusive [inhibitor, single point]",
CCOC(=O)c1c(NC(=S)NC(C)=O)sc(C)c1C,,inactive: 9.13%
Cc1occc1-c1nnc(SCC(=O)Nc2ccc3c(c2)OCO3)n1CC1CCCO1 (centres undefined),,inactive: -5.49%
O=C(C1CCC(CNS(=O)(=O)c2cccs2)CC1)N1CCN(c2ccc(F)cc2)CC1 (centres undefined),"inconclusive [inhibitor, partial curve, poor fit]",
COc1ccc(C(=O)NC(=S)Nc2nnn(C)n2)cc1,,inactive: 5.05%
O=C(Cc1ccc([N+](=O)[O-])cc1)NNC(=O)c1ccc2c(c1)OCO2,,inactive: 8.39%
COC(=O)c1cc(C(=O)Nc2ccc(S(=O)(=O)NC(C)(C)C)cc2)cc([N+](=O)[O-])c1,"inconclusive [inhibitor, partial curve, poor fit]",
CCCCCCC[n+]1ccc(-c2cc[n+](CCCCCCC)cc2)cc1,active: 0.415 µM,

SMILES,Potency,"activity change, negative = inhibition"
COc1ccc(-c2ccc(=O)n(CC(=O)NCc3ccco3)n2)cc1,,inactive: 17.2%
COCCCn1c(C(=O)NCCC2=CCCCC2)cc2c(=O)n3ccccc3nc21,"inconclusive [inhibitor, single point]",
Cc1ccc(Nc2cccccc2=O)cc1,,inactive: 190%
CCOc1ccc(CCNC(=O)c2ccc(F)c(S(=O)(=O)N3CCOCC3)c2)cc1OCC,"inconclusive [inhibitor, single point]",
CCCC(=O)N1CCN(c2ccc(NC(=S)NC(=O)c3cccc(C)c3)cc2)CC1,"inconclusive [inhibitor, single point]",
O=C(NCc1ccccn1)c1ccc(Cl)c(S(=O)(=O)NCc2ccccc2)c1,"inconclusive [inhibitor, single point]",
O=C(C[C@H]1C(=O)N(CCc2ccccc2)C[C@@H]1Cc1ccccc1)Nc1ccccc1,"inconclusive [inhibitor, full curve, poor fit]",
CCN(CC)C(=O)NC(c1ccc(C)c(F)c1)C(Cl)(Cl)Cl (centres undefined),"inconclusive [inhibitor, single point]",
N#Cc1ccc(OCC(O)CS(=O)(=O)c2ccc(F)cc2)cc1 (centres undefined),,inactive: 23.9%
CC(C)(C)C1C/C(=C/c2ccccn2)C(=O)/C(=C/c2ccccn2)C1 (centres undefined),active: 2.08 µM,
Clc1cccc(Cl)c1CON/C=N/c1ncnc2sccc12,"inconclusive [inhibitor, single point]",
COc1ccc(CCNC(=O)CC(=O)N/N=C/c2ccc(Br)cc2)cc1OC,,inactive: 2.51%
O=C(CCCOc1ccccc1)Nc1cccc(S(=O)(=O)N2CCCCC2)c1,"inconclusive [inhibitor, single point]",
O=C(NCc1ccccc1CN1CCCC1)c1cc2cc(Cl)ccc2o1,active: 13.1 µM,
O=C(Nc1nnc(-c2ccc(F)cc2)s1)c1ccco1,,inactive: 75.2%
Cc1cccc(C(=O)NCC(=O)OCC(=O)N2CCN(S(=O)(=O)c3ccc(C)cc3C)CC2)c1,"inconclusive [inhibitor, partial curve, poor fit]",
COc1ccc(OCC(=O)NC2CCCN(Cc3ccc(Cl)cc3)C2)cc1 (centres undefined),active: 13.1 µM,
O=C(NNc1c(Cl)cc(Cl)cc1Cl)C1CCC1,,inactive: -1.47%
Cc1ccc(N2CC(C(=O)N3CCC4(CC3)CC(=O)c3ccccc3O4)CC2=O)cc1C (centres undefined),"inconclusive [inhibitor, partial curve]",
COc1ccc(N2C(=O)NC3CC2(C)Oc2ccc(Cl)cc23)cc1OC (centres undefined),"inconclusive [inhibitor, single point]",
CSCCC(NC(=O)COc1ccccc1)C(=O)N(C)Cc1cccc(F)c1 (centres undefined),"inconclusive [inhibitor, single point]",
O=C(CSc1nc(C(F)(F)F)cc(=O)[nH]1)N1CCCC1,,inactive: -2.61%
Cc1noc(C)c1C(=O)N1CCc2ccccc21,,inactive: 2.76%

SMILES,Potency,"activity change, negative = inhibition"
CC(OC(=O)CNC(=O)c1ccco1)C(=O)N(C)c1ccccc1 (centres undefined),"inconclusive [inhibitor, single point]",
O=C(c1ccc(Cl)cc1)c1cc(-c2ccccn2)c(N2CCOCC2)s1,"inconclusive [inhibitor, single point]",
CCCCCC(=O)Nc1cccc(-c2nc3ncccc3o2)c1,"inconclusive [inhibitor, single point]",
O=C(O)c1ccc(NC(=O)N2C[C@H]3C[C@@H](C2)c2cccc(=O)n2C3)cc1,,inactive: 2.93%
COc1ccccc1-n1c(C)c(C(C)=O)c2cc(O)ccc21,"inconclusive [inhibitor, partial curve, poor fit]",
O=C1CCC(C(=O)Nc2cc(C(F)(F)F)ccc2-n2cncn2)=NN1,"inconclusive [inhibitor, single point]",
Oc1ccc(C(c2nnnn2C2CCCCC2)N2CCOCC2)cc1 (centres undefined),,inactive: -5.33%
CCc1cccc(N=c2c([N+](=O)[O-])nn(-c3ccc(Cl)cc3)n2O)c1,"inconclusive [inhibitor, single point]",
C/C(=N/O)c1ccccn1,"inconclusive [inhibitor, single point]",
O=C(CNC1CCCCC1)NCC1(c2ccccc2)CCCC1,"inconclusive [inhibitor, single point]",
Cc1ccc(N=N/C(=C\O)C(=O)c2ccc(Cl)cc2)cc1,"inconclusive [inhibitor, single point]",
O=C(Nc1nc(-c2ccc(F)cc2)cs1)C1CCN(C(=O)c2ccc(F)cc2)CC1,"inconclusive [inhibitor, partial curve]",
Cc1cc(NC(=O)c2sc(Nc3cccc(C(F)(F)F)c3)nc2N)no1,"inconclusive [inhibitor, partial curve]",
COc1cc(C(=O)N/C(=C\c2cn(C)c3ccccc23)C(=O)N2CCN(C)CC2)cc(OC)c1OC,"inconclusive [inhibitor, partial curve, poor fit]",
O=C(Nc1cccc(S(=O)(=O)N2CCOCC2)c1)c1cccc(S(=O)(=O)N2CCCCC2)c1,"inconclusive [inhibitor, single point]",
Cc1cccc(OCC(=O)Nc2ccccc2N2CCN(C(=O)C(C)C)CC2)c1C,,inactive: -5.04%
Cn1c(=O)c2c(nc(N/N=C/c3cccs3)n2C)n(C)c1=O,"inconclusive [inhibitor, partial curve, poor fit]",
CCN(CC)S(=O)(=O)c1ccc(/C=C/C(=O)NC2CCCCC2)cc1,"inconclusive [inhibitor, single point]",
CC(=O)Nc1ccc(NC(=S)Nc2ccc(F)cc2)cc1,,inactive: 4.46%
COc1ccc(C(=O)NC(C)C2CC3CCC2C3)c(OC)c1 (centres undefined),"inconclusive [inhibitor, single point]",
CCn1c2ccccc2c2cc(N=C3SC(CC(=O)Nc4ccccc4OC)C(=O)N3C)ccc21 (centres undefined),"inconclusive [inhibitor, single point]",
COc1cc(OC)c(CN2CCC(CO)(CCOc3ccccc3)CC2)c(OC)c1,"inconclusive [inhibitor, single point]",
CCC(C)NC(=O)CSc1nnc(-c2ccc(OC)c(OC)c2)c(-c2ccc(OC)c(OC)c2)n1 (centres undefined),"inconclusive [inhibitor, partial curve, poor fit]",
